# Positions count from the first letter of the chain named. Some of the results follow.
# B1: GGUGAAC (DNA:RNA)
# RNA: GGGAGACCGGAAUUCAGAUUGUCCGGUGAACUUAAAUCCCGUCGUAGCCACCA
# DNA 1: CAATCTGAATTCCGGTCTCCC
# DNA 2: TGGTGGCTACGACGGGATT
# B2: ACUUAGG (DNA:RNA)
# RNA: B1 RNA with G25A, G26C, G28U, A30G, C31G
# DNA 1: CAATCTGAATTCCGGTCTCCC
# DNA 2: TGGTGGCTACGACGGGATT
# B3: AUCCUUC (DNA:RNA)
# RNA: B1 RNA with G25A, G26U, U27C, G28C, A29U, A30U
# DNA 1: CAATCTGAATTCCGGTCTCCC
# DNA 2: TGGTGGCTACGACGGGATT
# B4: ACGGAUU (DNA:RNA)
# RNA: B1 RNA with G25A, G26C, U27G, A30U, C31U
# DNA 1: CAATCTGAATTCCGGTCTCCC
# DNA 2: TGGTGGCTACGACGGGATT
# B5: CAGUGAG (DNA:RNA)
# RNA: B1 RNA with G25C, G26A, U27G, G28U, A29G, C31G
# DNA 1: CAATCTGAATTCCGGTCTCCC
# DNA 2: TGGTGGCTACGACGGGATT
# B6: UCAGUUU (DNA:RNA)
# RNA: B1 RNA with G25U, G26C, U27A, A29U, A30U, C31U
# DNA 1: CAATCTGAATTCCGGTCTCCC
# DNA 2: TGGTGGCTACGACGGGATT
# B7: CACACUU (DNA:RNA)
# RNA: GGGAGACCGGAAUUCAGAUUGUCCCACACUUUUAAAUCCCGUCGUAGCCACCA
# DNA 1: CAATCTGAATTCCGGTCTCCC
# DNA 2: TGGTGGCTACGACGGGATT
# B8: CCAGCGA (DNA:RNA)
# RNA: B7 RNA with A26C, C27A, A28G, U30G, U31A
# DNA 1: CAATCTGAATTCCGGTCTCCC
# DNA 2: TGGTGGCTACGACGGGATT
# B9: GGAUAGU (DNA:RNA)
# RNA: B1 RNA with U27A, G28U, A30G, C31U
# DNA 1: CAATCTGAATTCCGGTCTCCC
# DNA 2: TGGTGGCTACGACGGGATT
# B10: GAAAGCG (DNA:RNA)
# RNA: B7 RNA with C25G, C27A, C29G, U30C, U31G
# DNA 1: CAATCTGAATTCCGGTCTCCC
# DNA 2: TGGTGGCTACGACGGGATT
# B11: GUAAUGG (DNA:RNA)
# RNA: B7 RNA with C25G, A26U, C27A, C29U, U30G, U31G
# DNA 1: CAATCTGAATTCCGGTCTCCC
# DNA 2: TGGTGGCTACGACGGGATT
# B12: CAAAAUU (DNA:RNA)
# RNA: B7 RNA with C27A, C29A
# DNA 1: CAATCTGAATTCCGGTCTCCC
# DNA 2: TGGTGGCTACGACGGGATT
# B13: CAUUCAG (DNA:RNA)
# RNA: B7 RNA with C27U, A28U, U30A, U31G
# DNA 1: CAATCTGAATTCCGGTCTCCC
# DNA 2: TGGTGGCTACGACGGGATT
# B14: GAAGUGC (DNA:RNA)
# RNA: B1 RNA with G26A, U27A, A29U, A30G
# DNA 1: CAATCTGAATTCCGGTCTCCC
# DNA 2: TGGTGGCTACGACGGGATT
# B15: UAGCCUA (DNA:RNA)
# RNA: B7 RNA with C25U, C27G, A28C, U31A
# DNA 1: CAATCTGAATTCCGGTCTCCC
# DNA 2: TGGTGGCTACGACGGGATT
# B16: CUGCUGG (DNA:RNA)
# RNA: B7 RNA with A26U, C27G, A28C, C29U, U30G, U31G
# DNA 1: CAATCTGAATTCCGGTCTCCC
# DNA 2: TGGTGGCTACGACGGGATT
# B17: CAUUACA (DNA:RNA)
# RNA: B7 RNA with C27U, A28U, C29A, U30C, U31A
# DNA 1: CAATCTGAATTCCGGTCTCCC
# DNA 2: TGGTGGCTACGACGGGATT
# B18: CAAUCGG (DNA:RNA)
# RNA: B7 RNA with C27A, A28U, U30G, U31G
# DNA 1: CAATCTGAATTCCGGTCTCCC
# DNA 2: TGGTGGCTACGACGGGATT
# B19: ACCCAUA (DNA:RNA)
# RNA: B7 RNA with C25A, A26C, A28C, C29A, U31A
# DNA 1: CAATCTGAATTCCGGTCTCCC
# DNA 2: TGGTGGCTACGACGGGATT
# B20: AUCCAUU (DNA:RNA)
# RNA: B7 RNA with C25A, A26U, A28C, C29A
# DNA 1: CAATCTGAATTCCGGTCTCCC
# DNA 2: TGGTGGCTACGACGGGATT
# B21: CAAAGCG (DNA:RNA)
# RNA: B7 RNA with C27A, C29G, U30C, U31G
# DNA 1: CAATCTGAATTCCGGTCTCCC
# DNA 2: TGGTGGCTACGACGGGATT
# B22: GGGCACG (DNA:RNA)
# RNA: B1 RNA with U27G, G28C, A30C, C31G
# DNA 1: CAATCTGAATTCCGGTCTCCC
# DNA 2: TGGTGGCTACGACGGGATT
# B23: UUUCUUG (DNA:RNA)
# RNA: B7 RNA with C25U, A26U, C27U, A28C, C29U, U31G
# DNA 1: CAATCTGAATTCCGGTCTCCC
# DNA 2: TGGTGGCTACGACGGGATT
# B24: GAGACUU (DNA:RNA)
# RNA: B7 RNA with C25G, C27G
# DNA 1: CAATCTGAATTCCGGTCTCCC
# DNA 2: TGGTGGCTACGACGGGATT
# B25: GAUAGUC (DNA:RNA)
# RNA: B7 RNA with C25G, C27U, C29G, U31C
# DNA 1: CAATCTGAATTCCGGTCTCCC
# DNA 2: TGGTGGCTACGACGGGATT
# B26: ACCAGGU (DNA:RNA)
# RNA: B7 RNA with C25A, A26C, C29G, U30G
# DNA 1: CAATCTGAATTCCGGTCTCCC
# DNA 2: TGGTGGCTACGACGGGATT
# B27: UCCCGUG (DNA:RNA)
# RNA: B7 RNA with C25U, A26C, A28C, C29G, U31G
# DNA 1: CAATCTGAATTCCGGTCTCCC
# DNA 2: TGGTGGCTACGACGGGATT
# B28: GUUGUAG (DNA:RNA)
# RNA: B1 RNA with G26U, A29U, C31G
# DNA 1: CAATCTGAATTCCGGTCTCCC
# DNA 2: TGGTGGCTACGACGGGATT
# B29: GUUGCGA (DNA:RNA)
# RNA: B1 RNA with G26U, A29C, A30G, C31A
# DNA 1: CAATCTGAATTCCGGTCTCCC
# DNA 2: TGGTGGCTACGACGGGATT
# B30: AUGCCCA (DNA:RNA)
# RNA: B7 RNA with C25A, A26U, C27G, A28C, U30C, U31A
# DNA 1: CAATCTGAATTCCGGTCTCCC
# DNA 2: TGGTGGCTACGACGGGATT
# B31: UGCGUGA (DNA:RNA)
# RNA: B1 RNA with G25U, U27C, A29U, A30G, C31A
# DNA 1: CAATCTGAATTCCGGTCTCCC
# DNA 2: TGGTGGCTACGACGGGATT
# Target: T1, RBFOX1 RRM (Homo sapiens, UniProt Q9NWB1 109-208)
# T1 sequence: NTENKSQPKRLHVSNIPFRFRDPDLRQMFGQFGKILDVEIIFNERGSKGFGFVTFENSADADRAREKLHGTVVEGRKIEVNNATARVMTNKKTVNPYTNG
# Assay: EMSA; HiTS-Eq, 1 nM pool, 10 min; buffer printed only for the single-RNA assays: 10 mM Tris pH 7.5, 150 mM NaCl, 3.4 mM EDTA, 0.001% NP-40, 30 C
# Settings: tags: His6 N-terminal (pET28a); label: 5' 32P
# Procedure, shortened: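 A pool of RNA with 7 randomized nucleotides, 5′-radiolabelled and with DNA-annealed flanks, was equilibrated at 1 nM for 10 min in 50 µL with purified RbFox RRM, wild type or mutant, across increasing protein concentrations. Free RNA was separated by 8% native PAGE, excised, reverse-transcribed, barcoded by PCR and sequenced. Relative association constants were obtained from read-count changes of each RNA species versus the control reaction and normalised to the cognate motif.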
row,Binder,binding signal
1,B1,0.0225 KA relative to UGCAUGU
2,B2,0.00645 KA relative to UGCAUGU
3,B3,0.00513 KA relative to UGCAUGU
4,B4,0.00809 KA relative to UGCAUGU
5,B5,0.00726 KA relative to UGCAUGU
6,B6,0.00938 KA relative to UGCAUGU
7,B7,0.000327 KA relative to UGCAUGU
8,B8,0.00889 KA relative to UGCAUGU
9,B9,0.0169 KA relative to UGCAUGU
10,B10,0.0114 KA relative to UGCAUGU
11,B11,0.0117 KA relative to UGCAUGU
12,B12,0.00052 KA relative to UGCAUGU
13,B13,0.00522 KA relative to UGCAUGU
14,B14,0.0195 KA relative to UGCAUGU
15,B15,0.00397 KA relative to UGCAUGU
16,B16,0.0205 KA relative to UGCAUGU

row,Binder,binding signal
1,B17,0.000751 KA relative to UGCAUGU
2,B18,0.00617 KA relative to UGCAUGU
3,B19,0.00387 KA relative to UGCAUGU
4,B20,0.00038 KA relative to UGCAUGU
5,B21,0.00468 KA relative to UGCAUGU
6,B22,0.0317 KA relative to UGCAUGU
7,B23,0.0222 KA relative to UGCAUGU
8,B24,0.0106 KA relative to UGCAUGU
9,B25,0.0209 KA relative to UGCAUGU
10,B26,0.00472 KA relative to UGCAUGU
11,B27,0.0166 KA relative to UGCAUGU
12,B28,0.0152 KA relative to UGCAUGU
13,B29,0.0206 KA relative to UGCAUGU
14,B30,0.00614 KA relative to UGCAUGU
15,B31,0.0231 KA relative to UGCAUGU
